± gives the standard deviation of the averaged measurements. The list shows a part of the results.

In this test the test system is PfAP2-G AP2 domain (GST-tagged). Kind of test: gcPBM binding intensity (ln(normalized median fluorescence intensity)); higher = stronger DNA binding. A digest of the protocol:
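An Agilent 4 × 180k array carrying primer-extended double-stranded 36-bp intergenic genomic probes and negative controls received GST-tagged P. falciparum DNA-binding domains expressed in E. coli, about 25 μg on average, for 1 h. The binding buffer contained 1× PBS, 1% milk, 0.2 mg/ml BSA, 0.5% salmon testes DNA and 0.03% Triton X-100. Binding intensity is the top Masliner-normalised natural-log median intensity across replicate spots of either probe orientation, read after Alexa488 anti-GST antibody staining and a 488 nm scan.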
Consider “TTATATAACATAACGATGTTTCAAAACATATTGTAT [CACACA_negctrl_site997]”, for which the “gcPBM binding intensity (ln)” value worked out at 9.815 ± 0.035.

Turning to “TTATAAAGAATTAGGAGTACAAATGCATATATAATA [XGTACX_site6580]”, the “gcPBM binding intensity (ln)” value is 11.5 ± 0.99.

“AAATATATAAAAGTATGTACATATGAAAAATATATA [XGTACX_site6165]”: the “gcPBM binding intensity (ln)” value stood at 11.3 ± 0.69.

As for “TACTTATGTTCGCACACATGCAAATTAAAAAAAAAA [TGCATGCA_site1023]”, the “gcPBM binding intensity (ln)” value turned out to be 10.3 ± 0.45.

Take “TACATATACATATTGTGTACATAATAATTATTTATA [XGTACX_site7884]”: the “gcPBM binding intensity (ln)” value came to 11.5 ± 0.92.

For “TATTAATAATTTTCATGTACATATGTATTTGTAATA [XGTACX_site858]”, the “gcPBM binding intensity (ln)” value was 11.2 ± 0.65.

For “ATATAATAAATGTCATGTACATACAACATTTTAACT [XGTACX_site7517]”, the “gcPBM binding intensity (ln)” value stood at 11.1 ± 0.52.

On to “TGAATAAAGAAACACACACACATATATATATATGTA [CACACA_site17]”, for which the “gcPBM binding intensity (ln)” value was 9.765 ± 0.007.

“TTTTTAATTTACTGTCATAGGTACCTTAACTTATCA [CACACA_negctrl_site1664]”: the “gcPBM binding intensity (ln)” value is 10.8 ± 0.47.

Take “TTAATTAAGAAACACACACACATATATATATATATT [CACACA_site2290]”: the “gcPBM binding intensity (ln)” value was determined as 9.815 ± 0.078.

For the sequence “TATTATATATATGCACGTACAAAAATAATAAAGGTA [XGTACX_site3506]”, the “gcPBM binding intensity (ln)” value worked out at 11.3 ± 0.8.

For “TCTCTTTTTCGTTCATGTACAAATAAATAAAAATAT [XGTACX_site6558]”, the “gcPBM binding intensity (ln)” value came to 10.9 ± 0.69.

As to “TTATATATATGACTTTGTACATATACATATTTTTTA [XGTACX_site4669]”, the “gcPBM binding intensity (ln)” value is 10.7 ± 0.54.

Consider “GTATATTTTATTTTATGTACATATTCATTTTTTATT [XGTACX_site561]”, for which the “gcPBM binding intensity (ln)” value worked out at 11.4 ± 0.66.

As to “ATTTTTTTACTGGATCCATATTTGCTTTTTTATTTA [CACACA_negctrl_site1108]”, the “gcPBM binding intensity (ln)” value amounted to 10.27 ± 0.064.

Consider “GTGGATATATGTATATGTACATATGTATGTATATAT [XGTACX_site2412]”, for which the “gcPBM binding intensity (ln)” value came to 11.1 ± 0.46.

As for “TCTTACTAATTTATGGGGACTTATCACCTATTCAGT [CACACA_negctrl_site652]”, the “gcPBM binding intensity (ln)” value turned out to be 10.5 ± 0.23.

With “AGTGGATAAATTTATTCACACATTTTTTTTTTTTTT [CACACA_site5914]”, the “gcPBM binding intensity (ln)” value was determined as 9.8 ± 0.19.

“TTTTATGAGAAACACACACACAAAAAAAAAAAAAAA [CACACA_site4129]”: the “gcPBM binding intensity (ln)” value worked out at 9.92 ± 0.61.

Take “TACATATATATATATGAACACACAAAAAGAATATTT [CACACA_site8421]”: the “gcPBM binding intensity (ln)” value came to 9.97 ± 0.11.

Consider “ATAAGCATACATATTACACACATATAATATATATAT [CACACA_site2487]”, for which the “gcPBM binding intensity (ln)” value was determined as 10.1 ± 0.18.

As for “CATGAATCCTAATAATGTACATAAGAATTCATAATG [XGTACX_site1607]”, the “gcPBM binding intensity (ln)” value turned out to be 11 ± 0.65.

Consider “TCAATAATAAAAAACACACACAAAAAAAAATAATTA [CACACA_site2798]”, for which the “gcPBM binding intensity (ln)” value turned out to be 10 ± 0.28.

In the case of “AACAAAGTCATACATACATACATATATATATATATA [GTGCAC_negctrl_site632]”, the “gcPBM binding intensity (ln)” value came out at 10 ± 0.27.

Consider “TAAAAAAAAAAAAAAACACACATATAAATATTTATA [CACACA_site6702]”, for which the “gcPBM binding intensity (ln)” value was determined as 9.55 ± 0.071.

With “AAAAAAAAAAAAAAAACACACATACACATATATTTT [CACACA_site7768]”, the “gcPBM binding intensity (ln)” value stood at 10.3 ± 0.23.

As for “TATATTATTTATAGTAGTACATAAAATATAAATATT [XGTACX_site4417]”, the “gcPBM binding intensity (ln)” value turned out to be 11.4 ± 0.89.

For the sequence “ATAATACATACATACATACACACATATATATATATT [CACACA_site3576]”, the “gcPBM binding intensity (ln)” value was found to be 10.2 ± 0.13.

With “TATTGTATTTCATATTGTACTAAAAAAAAAAAAAAG [XGTACX_site6694]”, the “gcPBM binding intensity (ln)” value is 11.2 ± 0.83.

In the case of “AAAAAAAAAAAAAATTGTACTTAAATATATATATAT [XGTACX_site7604]”, the “gcPBM binding intensity (ln)” value amounted to 11.1 ± 0.8.

Turning to “TATTATTTTTCATATGCATGCAAAAATAAAAAAATA [TGCATGCA_site350]”, the “gcPBM binding intensity (ln)” value was 9.96 ± 0.23.

Consider “TATAAAAAAAAAAAAAAAAAAAAAAATATATATATA [CACACA_negctrl_site817]”, for which the “gcPBM binding intensity (ln)” value amounted to 9.6 ± 0.45.

For the sequence “ATGAAAAAAAAAAAAAAAAAAAAAAAAAAAAAAATA [CACACA_negctrl_site1083]”, the “gcPBM binding intensity (ln)” value turned out to be 9.54 ± 0.2.

Consider “ATTTTTTTGTATATATATGACTGGGGATATAATCAA [GTGCAC_negctrl_site274]”, for which the “gcPBM binding intensity (ln)” value worked out at 10.1 ± 0.12.

As to “AAATTAAAATAAAATAGTACATATATTTATATTTTT [XGTACX_site1687]”, the “gcPBM binding intensity (ln)” value was 11.1 ± 0.69.

As to “TTTTGGTGTATAGTATTAATATAAAATAATTATATT [CACACA_negctrl_site47]”, the “gcPBM binding intensity (ln)” value was 10.2 ± 0.17.

For the sequence “AATTTATATTTATGTGCATGTAATAACTGTATATAA [TGCATGCA_site349]”, the “gcPBM binding intensity (ln)” value worked out at 10.2 ± 0.23.

In the case of “AAAAAAAGATTATACACACACATATATAAACATACA [CACACA_site4553]”, the “gcPBM binding intensity (ln)” value was found to be 9.915 ± 0.007.

As to “ACATACATATATTTATGTACATATATATTTATGATT [XGTACX_site6485]”, the “gcPBM binding intensity (ln)” value stood at 11.2 ± 0.56.

For the sequence “TTAGCTTATCATTACTGTACTTTATTCATATATATG [XGTACX_site8008]”, the “gcPBM binding intensity (ln)” value is 11.4 ± 0.84.

On to “TAAACATTCTTATATAGTACCCATATTAAAATATAC [XGTACX_site8014]”, for which the “gcPBM binding intensity (ln)” value amounted to 10.8 ± 0.58.

For the sequence “ATTTTTTTTTCTTGTACACACTATTTTATAATTTTA [CACACA_site6102]”, the “gcPBM binding intensity (ln)” value came out at 11.6 ± 0.93.

In the case of “TTTTTTTTTGAAAAAAGTACTTAATTTTTAAGAAGA [XGTACX_site3591]”, the “gcPBM binding intensity (ln)” value came out at 11.2 ± 0.85.

As for “TCTAATAATAAATACACACACATATATATTTATATA [CACACA_site5169]”, the “gcPBM binding intensity (ln)” value was found to be 9.99 ± 0.15.
